Where a name gives a salt, the structure may show the parent alone. ± gives the standard deviation of the averaged measurements. Over roughly 1,900 compounds, “normalised cell viability (NPI; 0 = phenylarsine oxide control, 1 = DMSO control)” has its median near 1; the lowest 2% begin near 0.039. This is one part of the list.
Tested on: NCI-H1944
Test: normalised cell viability (NPI; 0 = phenylarsine oxide control, 1 = DMSO control) (fraction of DMSO control); NCI-H1944 is a non-small cell lung cancer line; higher = more viable cells (less compound toxicity)
Conditions: 6 days
[1] = glucocorticoid arm: hydrocortisone 2.75 uM co-treatment, compound 1 µM
[2] = glucocorticoid arm: hydrocortisone 2.75 uM co-treatment, compound 5 µM
[3] = glucocorticoid arm: hydrocortisone 2.75 uM pre-treated 2 days and continued, compound 1 µM
[4] = glucocorticoid arm: hydrocortisone 2.75 uM pre-treated 2 days and continued, compound 5 µM
[5] = glucocorticoid arm: vehicle, compound 1 µM
[6] = glucocorticoid arm: vehicle, compound 5 µM
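Also: CTB read-out in 384-well plates, mean of triplicate wells, normalised per plate against 1 µM phenylarsine oxide and 0.1% DMSO, compounds added 24 h after seeding.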

## CCC(=O)NCC[C@@H]1CCc2ccc3c(c21)CCO3 [Ramelteon]
[1]
  normalised cell viability: 1 ± 0.018
[2]
  normalised cell viability: 1.01 ± 0.011
[3]
  normalised cell viability: 1.006 ± 0.0069
[4]
  normalised cell viability: 1.01 ± 0.019
[5]
  normalised cell viability: 0.9943 ± 0.009
[6]
  normalised cell viability: 0.9933 ± 0.0061

## COc1cc(=O)n(C)c2c(OCC(O)C(C)(C)O)cccc12 (stereo unspecified) [Foliosidine]
[1]
  normalised cell viability: 1.005 ± 0.0081
[2]
  normalised cell viability: 0.99 ± 0.01
[3]
  normalised cell viability: 0.9877 ± 0.0067
[4]
  normalised cell viability: 0.981 ± 0.012
[5]
  normalised cell viability: 0.998 ± 0.011
[6]
  normalised cell viability: 0.9963 ± 0.0021

## CN(C)CCC(c1ccc(Cl)cc1)c1ccccn1 (stereo unspecified) [Chlorpheniramine Maleate]
[1]
  normalised cell viability: 1.02 ± 0.01
[2]
  normalised cell viability: 0.985 ± 0.034
[3]
  normalised cell viability: 1.03 ± 0.015
[4]
  normalised cell viability: 0.991 ± 0.026
[5]
  normalised cell viability: 0.9897 ± 0.0023
[6]
  normalised cell viability: 0.9807 ± 0.0047

## C[C@H](O)C(=O)C1=Nc2c(nc(N)[nH]c2=O)NC1 [Sepiapterin]
[1]
  normalised cell viability: 0.998 ± 0.0035
[2]
  normalised cell viability: 1.01 ± 0.016
[3]
  normalised cell viability: 1.02 ± 0.015
[4]
  normalised cell viability: 0.999 ± 0.01
[5]
  normalised cell viability: 0.9937 ± 0.0055
[6]
  normalised cell viability: 0.9923 ± 0.0025

## COc1ccccc1N1CCN(CCN2C(=O)CC3(CCCC3)CC2=O)CC1 [BMY 7378 dihydrochloride]
[1]
  normalised cell viability: 1 ± 0.013
[2]
  normalised cell viability: 1.01 ± 0.012
[3]
  normalised cell viability: 0.99 ± 0.014
[4]
  normalised cell viability: 1 ± 0.025
[5]
  normalised cell viability: 1.003 ± 0.0058
[6]
  normalised cell viability: 1.01 ± 0.011

## COc1ccccc1N1CCN(CCN2C(=O)CC3(CCCC3)CC2=O)CC1
[1]
  normalised cell viability: 1.02 ± 0.015
[2]
  normalised cell viability: 1.01 ± 0.034
[3]
  normalised cell viability: 1.027 ± 0.0058
[4]
  normalised cell viability: 1.01 ± 0.013
[5]
  normalised cell viability: 1.007 ± 0.0058
[6]
  normalised cell viability: 1.003 ± 0.0058

## CN(C)c1nc(N)c(C(=O)NC(=N)N)nc1Cl [5-(N,N-Dimethyl)amiloride hydrochloride]
[1]
  normalised cell viability: 0.995 ± 0.007
[2]
  normalised cell viability: 1.003 ± 0.0058
[3]
  normalised cell viability: 0.997 ± 0.0027
[4]
  normalised cell viability: 1.01
[5]
  normalised cell viability: 0.981 ± 0.0089
[6]
  normalised cell viability: 0.977 ± 0.0079

## CC(C)C[C@H](NC(=O)CNC(=O)c1cc(Cl)ccc1Cl)B1OC(=O)CC(CC(=O)O)(C(=O)O)O1 (stereo partly specified)
[1]
  normalised cell viability: 0.98 ± 0.014
[2]
  normalised cell viability: 0.835 ± 0.018
[3]
  normalised cell viability: 1.047 ± 0.0058
[4]
  normalised cell viability: 1.04 ± 0.015
[5]
  normalised cell viability: 0.263 ± 0.024
[6]
  normalised cell viability: 0.0378 ± 0.0053

## Cc1nc2c(OCc3ccccc3)cccn2c1CC#N
[1]
  normalised cell viability: 1.023 ± 0.0058
[2]
  normalised cell viability: 1.02 ± 0.01
[3]
  normalised cell viability: 1.013 ± 0.0058
[4]
  normalised cell viability: 1.02 ± 0.015
[5]
  normalised cell viability: 1.003 ± 0.0058
[6]
  normalised cell viability: 1.01

## CCOC(=O)C1=C(C)NC(C)=C(C(=O)OC)C1c1cccc([N+](=O)[O-])c1 (stereo unspecified) [Nitrendipine]
[1]
  normalised cell viability: 1.013 ± 0.0058
[2]
  normalised cell viability: 1.03 ± 0.025
[3]
  normalised cell viability: 1.01
[4]
  normalised cell viability: 1.02 ± 0.095
[5]
  normalised cell viability: 0.9927 ± 0.0075
[6]
  normalised cell viability: 1 ± 0.014

## CNC(=O)c1ccccc1Sc1ccc2c(/C=C/c3ccccn3)n[nH]c2c1 [Axitinib]
[1]
  normalised cell viability: 1.02 ± 0.015
[2]
  normalised cell viability: 1.06 ± 0.01
[3]
  normalised cell viability: 1.04 ± 0.011
[4]
  normalised cell viability: 1.033 ± 0.0058
[5]
  normalised cell viability: 1 ± 0.0095
[6]
  normalised cell viability: 0.953 ± 0.026

## CNC(=O)c1ccccc1Sc1ccc2c(/C=C/c3ccccn3)n[nH]c2c1
[1]
  normalised cell viability: 1.03 ± 0.01
[2]
  normalised cell viability: 0.932 ± 0.017
[3]
  normalised cell viability: 1.007 ± 0.0058
[4]
  normalised cell viability: 0.997 ± 0.022
[5]
  normalised cell viability: 0.9967 ± 0.0021
[6]
  normalised cell viability: 0.59 ± 0.021

## CC(CN1c2ccccc2Sc2ccccc21)N(C)C (stereo unspecified) [Promethazine hydrochloride]
[1]
  normalised cell viability: 0.999 ± 0.001
[2]
  normalised cell viability: 0.969 ± 0.0072
[3]
  normalised cell viability: 1.023 ± 0.0058
[4]
  normalised cell viability: 0.901 ± 0.25
[5]
  normalised cell viability: 1.006 ± 0.0075
[6]
  normalised cell viability: 1.01 ± 0.01

## S=C=Nc1cccc(NC(=S)NCCCCNC(=S)Nc2cccc(N=C=S)c2)c1
[1]
  normalised cell viability: 1.04 ± 0.04
[2]
  normalised cell viability: 1.05 ± 0.015
[3]
  normalised cell viability: 1.02 ± 0.033
[4]
  normalised cell viability: 1.04 ± 0.032
[5]
  normalised cell viability: 1.017 ± 0.0058
[6]
  normalised cell viability: 1.003 ± 0.0058

## CCOc1cc(N2CCC(O)CC2)ccc1Nc1ncc2c(n1)N(C)c1ccccc1C(=O)N2C
[1]
  normalised cell viability: 1.017 ± 0.0058
[2]
  normalised cell viability: 1.07 ± 0.029
[3]
  normalised cell viability: 1.02 ± 0.011
[4]
  normalised cell viability: 1.03 ± 0.015
[5]
  normalised cell viability: 1.013 ± 0.0058
[6]
  normalised cell viability: 1.03 ± 0.017

## O=C(c1ccc(OCCN2CCCCC2)cc1)c1c(-c2ccc(O)cc2)sc2cc(O)ccc12 [Raloxifene HCl; Raloxifene hydrochloride]
[1]
  normalised cell viability: 1.01 ± 0.021
[2]
  normalised cell viability: 0.9993 ± 0.0093
[3]
  normalised cell viability: 1.023 ± 0.0058
[4]
  normalised cell viability: 1.04 ± 0.01
[5]
  normalised cell viability: 1.007 ± 0.0058
[6]
  normalised cell viability: 1.007 ± 0.0058

## O=C(c1ccc(OCCN2CCCCC2)cc1)c1c(-c2ccc(O)cc2)sc2cc(O)ccc12 [Raloxifene HCl]
[1]
  normalised cell viability: 1 ± 0.015
[2]
  normalised cell viability: 1.043 ± 0.0058
[3]
  normalised cell viability: 1.01 ± 0.01
[4]
  normalised cell viability: 1.06 ± 0.01
[5]
  normalised cell viability: 0.999 ± 0.01
[6]
  normalised cell viability: 0.943 ± 0.0079

## O=C(c1ccc(OCCN2CCCCC2)cc1)c1c(-c2ccc(O)cc2)sc2cc(O)ccc12 [Raloxifene hydrochloride]
[1]
  normalised cell viability: 0.9787 ± 0.0031
[2]
  normalised cell viability: 1.01 ± 0.017
[3]
  normalised cell viability: 1.02 ± 0.023
[4]
  normalised cell viability: 1.08 ± 0.01
[5]
  normalised cell viability: 0.984 ± 0.0046
[6]
  normalised cell viability: 0.999 ± 0.0095

## CCc1c(C(=O)NCCc2ccc(N3CCCCC3)cc2)[nH]c2ccc(Cl)cc12
[1]
  normalised cell viability: 1.01 ± 0.018
[2]
  normalised cell viability: 0.993 ± 0.021
[3]
  normalised cell viability: 1.027 ± 0.0058
[4]
  normalised cell viability: 0.999 ± 0.011
[5]
  normalised cell viability: 1 ± 0.0095
[6]
  normalised cell viability: 0.982 ± 0.012

## O=C(Nc1cccc(Cl)c1)Nc1ncc(CCNc2ncnc3ccsc23)s1 [SNS-314 Mesylate]
[1]
  normalised cell viability: 0.897 ± 0.015
[2]
  normalised cell viability: 0.837 ± 0.0056
[3]
  normalised cell viability: 0.94 ± 0.013
[4]
  normalised cell viability: 0.93033 ± 0.00058
[5]
  normalised cell viability: 0.723 ± 0.032
[6]
  normalised cell viability: 0.505 ± 0.044

## O=C(Nc1cccc(Cl)c1)Nc1ncc(CCNc2ncnc3ccsc23)s1
[1]
  normalised cell viability: 0.905 ± 0.012
[2]
  normalised cell viability: 0.779 ± 0.041
[3]
  normalised cell viability: 0.93 ± 0.017
[4]
  normalised cell viability: 0.897 ± 0.035
[5]
  normalised cell viability: 0.686 ± 0.013
[6]
  normalised cell viability: 0.554 ± 0.041

## Nc1ncnc2c1c(-c1cccc(OCc3ccccc3)c1)cn2C1CC(CN2CCCC2)C1 (stereo unspecified)
[1]
  normalised cell viability: 0.584 ± 0.055
[2]
  normalised cell viability: 0.445 ± 0.037
[3]
  normalised cell viability: 0.546 ± 0.029
[4]
  normalised cell viability: 0.565 ± 0.051
[5]
  normalised cell viability: 0.978 ± 0.007
[6]
  normalised cell viability: 0.894 ± 0.029

## CNC(=O)CN1CCC(Oc2cc3c(Nc4cccc(Cl)c4F)ncnc3cc2OC)CC1
[1]
  normalised cell viability: 0.814 ± 0.021
[2]
  normalised cell viability: 0.714 ± 0.072
[3]
  normalised cell viability: 0.867 ± 0.012
[4]
  normalised cell viability: 0.789 ± 0.066
[5]
  normalised cell viability: 0.832 ± 0.0096
[6]
  normalised cell viability: 0.703 ± 0.052

## Nc1nc(N)nc(-c2cc(Cl)ccc2Cl)n1 [Irsogladine]
[1]
  normalised cell viability: 0.999 ± 0.018
[2]
  normalised cell viability: 0.989 ± 0.0098
[3]
  normalised cell viability: 1.01 ± 0.011
[4]
  normalised cell viability: 0.993 ± 0.018
[5]
  normalised cell viability: 0.991 ± 0.0079
[6]
  normalised cell viability: 0.999 ± 0.0017

## CCN1CCCC1CNC(=O)c1cc(S(=O)(=O)CC)c(N)cc1OC (stereo unspecified) [Amisulpride]
[1]
  normalised cell viability: 1.002 ± 0.007
[2]
  normalised cell viability: 0.974 ± 0.028
[3]
  normalised cell viability: 1.02 ± 0.027
[4]
  normalised cell viability: 1 ± 0.018
[5]
  normalised cell viability: 1.01 ± 0.01
[6]
  normalised cell viability: 1.017 ± 0.0058

## CCCS(=O)(=O)Nc1ccc(F)c(C(=O)c2c[nH]c3ncc(Cl)cc23)c1F
[1]
  normalised cell viability: 1.06 ± 0.01
[2]
  normalised cell viability: 1.11 ± 0.023
[3]
  normalised cell viability: 1.06
[4]
  normalised cell viability: 1.09 ± 0.015
[5]
  normalised cell viability: 1.02 ± 0.01
[6]
  normalised cell viability: 1.03 ± 0.01

Source: the supplement of paper PMC8285479
